The other results are listed elsewhere or left out. Many values rest on one well or one pass, so single values are uncertain.
tested on: MZ2-MEL; experiment: cell count relative to DMSO control; melanoma cells; higher = more viable cells; details: library dose: standard library concentration; 72 h; first compound 2 µM
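Further: cells treated in 1,536-well plates, then fixed and DAPI-stained, with nuclei counted from automated high-throughput microscope images.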

With C[C@@H](N)c1ccc(C(=O)Nc2ccnc3[nH]ccc23)cc1 + CO[C@@H]1[C@H](N(C)C(=O)c2ccccc2)C[C@H]2O[C@]1(C)n1c3ccccc3c3c4c(c5c6ccccc6n2c5c31)C(=O)NC4 [Midostaurin] (partner dose 0.4 µM) as the compound, how does the cell count read?
The cell count was 51.1%.

For Cn1sc(=O)n(Cc2ccccc2)c1=O + Nc1cccc2c1CN(C1CCC(=O)NC1=O)C2=O [lenalidomide] (partner dose 5 µM), which cell count is on record?
The cell count was 111%.

Which cell count does the source give for Cn1sc(=O)n(Cc2ccccc2)c1=O + COc1cc2c(Oc3ccc4[nH]c(C)cc4c3F)ncnc2cc1OCCCN1CCCC1 [cediranib] (partner dose 2 µM) here?
The cell count was 83.4%.

How did the cell count turn out when C[C@@H](N)c1ccc(C(=O)Nc2ccnc3[nH]ccc23)cc1 + Cn1sc(=O)n(Cc2ccccc2)c1=O [TDZD-8] (partner dose 2 µM) was run?
Its cell count is 49.6%.

Which cell count does the source give for C[C@@H](N)c1ccc(C(=O)Nc2ccnc3[nH]ccc23)cc1 + CC(C)C[C@H](NC(=O)[C@H](Cc1ccccc1)NC(=O)c1cnccn1)B(O)O [Bortezomib] (partner dose 0.005 µM) here?
The cell count was 2.02%.

For CCCCCCCCCCCCCCCCCCOP(=O)([O-])OC1CC[N+](C)(C)CC1 [Perifosine] + C#Cc1cccc(Nc2ncnc3cc(OCCOC)c(OCCOC)cc23)c1 [erlotinib] (partner dose 4 µM), which cell count is on record?
Its cell count is 69.7%.

Cn1sc(=O)n(Cc2ccccc2)c1=O + CNC(=O)c1cc(Oc2ccc(NC(=O)Nc3ccc(Cl)c(C(F)(F)F)c3)cc2)ccn1 [sorafenib] (partner dose 2 µM) was tested. Which cell count did it give?
Its cell count is 112%.

How did the cell count turn out when CCCCCCCCCCCCCCCCCCOP(=O)([O-])OC1CC[N+](C)(C)CC1 [Perifosine] + C[C@]1(c2nc3c(C(N)=O)cccc3[nH]2)CCCN1 [Veliparib] (partner dose 7 µM) was run?
Its cell count is 95.4%.

For Cn1sc(=O)n(Cc2ccccc2)c1=O + Cc1cc(Nc2cc(N3CCN(C)CC3)nc(/C=C/c3ccccc3)n2)n[nH]1 [ENMD2076] (partner dose 0.2 µM), which cell count is on record?
Its cell count is 109%.

With CCCCCCCCCCCCCCCCCCOP(=O)([O-])OC1CC[N+](C)(C)CC1 [Perifosine] + COc1ccc(C2=N[C@@H](c3ccc(Cl)cc3)[C@@H](c3ccc(Cl)cc3)N2C(=O)N2CCNC(=O)C2)c(OC(C)C)c1 [Nutlin-3] (partner dose 0.5 µM) as the compound, how does the cell count read?
The cell count was 73.1%.

How did the cell count turn out when Cn1sc(=O)n(Cc2ccccc2)c1=O + Cn1c(=O)n(-c2ccc(C(C)(C)C#N)cc2)c2c3cc(-c4cnc5ccccc5c4)ccc3ncc21 [NVP-BEZ235] (partner dose 0.02 µM) was run?
Its cell count is 80.1%.

C[C@@H](N)c1ccc(C(=O)Nc2ccnc3[nH]ccc23)cc1 + Nc1nc(F)nc2c1ncn2[C@@H]1O[C@H](CO)[C@@H](O)[C@@H]1O [fludarabine] (partner dose 1 µM) was tested. Which cell count did it give?
The cell count was 69.2%.

C[C@@H](N)c1ccc(C(=O)Nc2ccnc3[nH]ccc23)cc1 + O=C(Nc1cccc(Cl)c1)Nc1ncc(CCNc2ncnc3ccsc23)s1 [SNS314] (partner dose 0.004 µM) was tested. Which cell count did it give?
The cell count was 57.6%.

Cn1sc(=O)n(Cc2ccccc2)c1=O + O=C(O)c1ccc2c(c1)nc(Nc1cccc(Cl)c1)c1ccncc12 [CX4945] (partner dose 2 µM) was tested. Which cell count did it give?
Its cell count is 60.3%.

Which cell count does the source give for Cn1sc(=O)n(Cc2ccccc2)c1=O + COc1ccc(Cl)c(Nc2nc3ccccc3nc2NS(=O)(=O)c2cccc(NC(=O)C(C)(C)N)c2)c1 [XL147] (partner dose 4 µM) here?
Its cell count is 77.5%.

Which cell count does the source give for CCCCCCCCCCCCCCCCCCOP(=O)([O-])OC1CC[N+](C)(C)CC1 [Perifosine] + Cn1nnc2c(C(N)=O)ncn2c1=O [temozolomide] (partner dose 10 µM) here?
Its cell count is 111%.

Which cell count does the source give for CCCCCCCCCCCCCCCCCCOP(=O)([O-])OC1CC[N+](C)(C)CC1 [Perifosine] + Clc1ccc(Nc2nnc(Cc3ccncc3)c3ccccc23)cc1 [vatalanib] (partner dose 10 µM) here?
The cell count was 92.1%.

C[C@@H](N)c1ccc(C(=O)Nc2ccnc3[nH]ccc23)cc1 + COc1cc(Nc2ncc(F)c(Nc3ccc4c(n3)NC(=O)C(C)(C)O4)n2)cc(OC)c1OC [Tamatinib] (partner dose 2 µM) was tested. Which cell count did it give?
The cell count was 39.5%.

C[C@@H](N)c1ccc(C(=O)Nc2ccnc3[nH]ccc23)cc1 + COc1cc2c(Oc3ccc4[nH]c(C)cc4c3F)ncnc2cc1OCCCN1CCCC1 [cediranib] (partner dose 2 µM) was tested. Which cell count did it give?
Its cell count is 55%.

With C[C@@H](N)c1ccc(C(=O)Nc2ccnc3[nH]ccc23)cc1 + CCCCCCCCc1ccc(CCC(N)(CO)CO)cc1 [fingolimod] (partner dose 10 µM) as the compound, how does the cell count read?
The cell count was 0.443%.

Cn1sc(=O)n(Cc2ccccc2)c1=O + C[C@]1(O)C[C@@H](c2nc(-c3ccc4ccc(-c5ccccc5)nc4c3)c3c(N)nccn32)C1 [OSI906] (partner dose 2 µM) was tested. Which cell count did it give?
The cell count was 92.1%.

How did the cell count turn out when Cn1sc(=O)n(Cc2ccccc2)c1=O + NC(=O)c1ccc(N(C(N)=O)c2c(F)cccc2F)nc1-c1ccc(F)cc1F [VX702] (partner dose 2 µM) was run?
Its cell count is 111%.

How did the cell count turn out when C[C@@H](N)c1ccc(C(=O)Nc2ccnc3[nH]ccc23)cc1 + Cn1cnc2c(F)c(Nc3ccc(Br)cc3Cl)c(C(=O)NOCCO)cc21 [selumetinib] (partner dose 0.075 µM) was run?
The cell count was 32.5%.

With CCCCCCCCCCCCCCCCCCOP(=O)([O-])OC1CC[N+](C)(C)CC1 [Perifosine] + CC(C)C[C@H](NC(=O)[C@H](Cc1ccccc1)NC(=O)c1cnccn1)B(O)O [Bortezomib] (partner dose 0.005 µM) as the compound, how does the cell count read?
The cell count was 6.53%.

With C[C@@H](N)c1ccc(C(=O)Nc2ccnc3[nH]ccc23)cc1 + CNC(=O)c1cc(Oc2ccc(NC(=O)Nc3ccc(Cl)c(C(F)(F)F)c3)cc2)ccn1 [sorafenib] (partner dose 2 µM) as the compound, how does the cell count read?
The cell count was 56.5%.

How did the cell count turn out when CCCCCCCCCCCCCCCCCCOP(=O)([O-])OC1CC[N+](C)(C)CC1 [Perifosine] + C[C@]1(O)C[C@@H](c2nc(-c3ccc4ccc(-c5ccccc5)nc4c3)c3c(N)nccn32)C1 [OSI906] (partner dose 2 µM) was run?
The cell count was 88.2%.

With CCCCCCCCCCCCCCCCCCOP(=O)([O-])OC1CC[N+](C)(C)CC1 [Perifosine] + NC1(c2ccc(-c3nc4ccn5c(=O)[nH]nc5c4cc3-c3ccccc3)cc2)CCC1 [MK2206] (partner dose 2 µM) as the compound, how does the cell count read?
The cell count was 84%.

For CCCCCCCCCCCCCCCCCCOP(=O)([O-])OC1CC[N+](C)(C)CC1 [Perifosine] + O=c1[nH]nc(Sc2ncc([N+](=O)[O-])s2)n1-c1ccc2c(c1)OCCO2 [BI78D3] (partner dose 1 µM), which cell count is on record?
The cell count was 104%.

How did the cell count turn out when C[C@@H](N)c1ccc(C(=O)Nc2ccnc3[nH]ccc23)cc1 + NC1(c2ccc(-c3nc4ccn5c(=O)[nH]nc5c4cc3-c3ccccc3)cc2)CCC1 [MK2206] (partner dose 2 µM) was run?
The cell count was 57.5%.

How did the cell count turn out when CCCCCCCCCCCCCCCCCCOP(=O)([O-])OC1CC[N+](C)(C)CC1 [Perifosine] + Cc1cn(-c2cc(NC(=O)c3ccc(C)c(Nc4nccc(-c5cccnc5)n4)c3)cc(C(F)(F)F)c2)cn1 [nilotinib] (partner dose 1 µM) was run?
The cell count was 103%.

How did the cell count turn out when Cn1sc(=O)n(Cc2ccccc2)c1=O + CN(c1ncccc1CNc1nc(Nc2ccc3c(c2)CC(=O)N3)ncc1C(F)(F)F)S(C)(=O)=O [PF562271] (partner dose 0.4 µM) was run?
The cell count was 108%.

Which cell count does the source give for C[C@@H](N)c1ccc(C(=O)Nc2ccnc3[nH]ccc23)cc1 + C=C(c1ccc(C(=O)O)cc1)c1cc2c(cc1C)C(C)(C)CCC2(C)C [Bexarotene] (partner dose 10 µM) here?
The cell count was 54%.

With CCCCCCCCCCCCCCCCCCOP(=O)([O-])OC1CC[N+](C)(C)CC1 [Perifosine] + Cc1cc(Nc2cc(N3CCN(C)CC3)nc(/C=C/c3ccccc3)n2)n[nH]1 [ENMD2076] (partner dose 0.2 µM) as the compound, how does the cell count read?
The cell count was 108%.

Which cell count does the source give for C[C@@H](N)c1ccc(C(=O)Nc2ccnc3[nH]ccc23)cc1 + CN(NC(=O)CC(=O)NN(C)C(=S)c1ccccc1)C(=S)c1ccccc1 [STA4783] (partner dose 0.03 µM) here?
Its cell count is 56.7%.

How did the cell count turn out when Cn1sc(=O)n(Cc2ccccc2)c1=O + COc1cc(Nc2ncc(F)c(Nc3ccc4c(n3)NC(=O)C(C)(C)O4)n2)cc(OC)c1OC [Tamatinib] (partner dose 2 µM) was run?
Its cell count is 81.1%.

Which cell count does the source give for CCCCCCCCCCCCCCCCCCOP(=O)([O-])OC1CC[N+](C)(C)CC1 [Perifosine] + OCc1c[nH]c2ccccc12 [Indole-3-carbinol] (partner dose 4 µM) here?
The cell count was 94.7%.

C[C@@H](N)c1ccc(C(=O)Nc2ccnc3[nH]ccc23)cc1 + CS(=O)(=O)CCNCc1ccc(-c2ccc3ncnc(Nc4ccc(OCc5cccc(F)c5)c(Cl)c4)c3c2)o1 [lapatinib] (partner dose 4 µM) was tested. Which cell count did it give?
Its cell count is 17.4%.

For Cn1sc(=O)n(Cc2ccccc2)c1=O + O=C(O)c1ccc(-c2c[nH]c3ncc(-c4ccccc4)cc23)cc1C1CCCC1 [GSK650394] (partner dose 0.8 µM), which cell count is on record?
The cell count was 93%.

Which cell count does the source give for Cn1sc(=O)n(Cc2ccccc2)c1=O + Cn1nnc2c(C(N)=O)ncn2c1=O [temozolomide] (partner dose 10 µM) here?
The cell count was 111%.
